{"source": "ChEMBL document CHEMBL4888484", "about": "“Replenishing the malaria drug discovery pipeline: Screening and hit evaluation of the MMV Hit Generation Library 1 (HGL1) against asexual blood stage Plasmodium falciparum ,using a nano luciferase reporter read-out” (2022)", "note": "The campaign covered roughly 150,000 compounds. About 540 (0.36%) showed an effect of 50% or more. This is one part of the list.", "data": [{"tested_on": "Plasmodium falciparum", "assay": "Primary screen in NF54 nanoGlo assay, in single point, at 2uM, 72h; a lower Z score goes with more inhibition", "type": "functional, Erythrocyte", "details": "timepoint 72 hour", "units": {"% Inhibition": "%"}, "values": [{"compound": "Cc1ncsc1CNC(=O)NCCc1cc2ccccc2o1", "% Inhibition": -6, "Z score": 1.09}, {"compound": "CO[C@H]1[C@@H]2CC[C@H]1CN(C(=O)c1cc(C)[nH]c(=O)c1)C2", "% Inhibition": -14, "Z score": 1.51}, {"compound": "O=C(c1cccs1)N1CCc2ncnc(N3CCC(O)CC3)c2CC1", "% Inhibition": 1, "Z score": -0.1}, {"compound": "COc1ccccc1[C@@H](O)CNC(=O)Nc1csnc1OC", "% Inhibition": 14, "Z score": -1.72}, {"compound": "CCn1cc(C)c(C(=O)O)c1CC(=O)N1CCc2ccccc21", "% Inhibition": -1, "Z score": 0.19}, {"compound": "Cc1nc(C)c(CC(=O)NCc2cnc3cnccn23)s1", "% Inhibition": -17, "Z score": 1.79}, {"compound": "Nc1n[nH]c(S(=O)(=O)CCCc2ccccc2)n1", "% Inhibition": -5, "Z score": 0.43}, {"compound": "CCN1CC[C@H](NC(=O)c2cc(OC)ccn2)C1", "% Inhibition": -7, "Z score": 0.95}, {"compound": "C[C@H](O)CCN(C)c1ccc(Br)cc1C#N", "% Inhibition": -4, "Z score": 0.61}, {"compound": "Cc1cccc(N(CCC(N)=O)C(=O)[C@H]2CCn3c(cnc3C(F)(F)F)C2)c1", "% Inhibition": -7, "Z score": 1.17}, {"compound": "c1snnc1Cn1c(-c2csnn2)nc2cc3c(cc21)OCCCO3", "% Inhibition": -6, "Z score": 1.26}, {"compound": "CN(C)C(=O)COc1ccc(C#N)cc1", "% Inhibition": -9, "Z score": 1.13}, {"compound": "Cc1nnc(CN2[C@H]3C[C@H]4CCC3(CS2(=O)=O)C4(C)C)s1", "% Inhibition": 5, "Z score": -0.52}, {"compound": "O=C(Cn1ncn2c(cc3cc(F)ccc32)c1=O)NC[C@H]1CCCO1", "% Inhibition": -7, "Z score": 0.92}, {"compound": "NC(=O)[C@@H]1CN(Cc2cc(F)ccc2F)C[C@H]1COc1ccncc1", "% Inhibition": 0, "Z score": -0.03}, {"compound": "O=C(O)c1ccc(C(=O)N2CC(c3ccccc3)C3CCCC32)c(F)c1", "note": "(configuration not stated)", "% Inhibition": -7, "Z score": 1.02}, {"compound": "CCOc1ccccc1CNC(=O)CN1C(=O)C(C)(C)c2cc(C)ccc21", "% Inhibition": 0, "Z score": -0.05}, {"compound": "CCN(Cc1nccn1C)C(=O)c1ccc(-c2cc(OC)nc(OC)n2)cc1", "% Inhibition": -3, "Z score": 0.67}, {"compound": "CC(=O)N1CC(C(=O)N2CCC3(CCC3)CC2)C1", "% Inhibition": 17, "Z score": -1.99}, {"compound": "CC(=O)[C@@H]1C[C@H](C(=O)NCc2ccc(Oc3cccc(F)c3)nc2)C1(C)C", "% Inhibition": -12, "Z score": 1.64}, {"compound": "CCS(=O)(=O)CC(C)N(C)C(=O)NC1CCCC(C)C1", "note": "(configuration not stated)", "% Inhibition": -3, "Z score": 0.4}, {"compound": "CCc1csc(N2CCOCC3(CC3)C2)n1", "% Inhibition": 0, "Z score": -0.04}, {"compound": "Cc1ccc2nc3n(c2c1)[C@@H](CNC1CCCCC1)COC3", "% Inhibition": 3, "Z score": -0.35}, {"compound": "CC1CN(C(C)C(=O)O)CC(c2ccsc2)O1", "note": "(configuration not stated)", "% Inhibition": -5, "Z score": 0.41}, {"compound": "O=C(Nc1ccnc(C2CCCC2)n1)[C@@H]1CCCO1", "% Inhibition": -1, "Z score": 0.08}, {"compound": "COc1ccc(-c2cn(CCCc3cnn(C)c3)nn2)c(F)c1", "% Inhibition": 9, "Z score": -1.2}, {"compound": "CCCCC[C@H](C)NS(=O)(=O)Cc1cc(C)no1", "% Inhibition": -4, "Z score": 0.6}, {"compound": "CC(C)(C)CS(=O)(=O)NC1CC2CCC1O2", "note": "(configuration not stated)", "% Inhibition": -5, "Z score": 0.46}, {"compound": "NC(=O)N1CC[C@H](NC(=O)c2ccc(C(F)(F)F)c(F)c2)C1", "% Inhibition": -32, "Z score": 3.72}, {"compound": "CC(C)C1=NO[C@H](C(=O)NCCN2CCCCC2=O)C1", "% Inhibition": -15, "Z score": 2.35}, {"compound": "Cc1nc2cc(CC(=O)NC3(CO)CCCCC3)ccc2[nH]1", "% Inhibition": -9, "Z score": 1.36}, {"compound": "O=C(N[C@H]1CC[C@H](Oc2ncccn2)CC1)[C@@H]1Cc2ccccc2CO1", "% Inhibition": -8, "Z score": 1.42}, {"compound": "CC(C)(C)NCCOCCOc1cc(Cl)ccc1Cl", "% Inhibition": 5, "Z score": -1.02}, {"compound": "COCC(=O)N[C@@H]1CN(CC2CC2)CC[C@@H]1c1nc(C)no1", "% Inhibition": -14, "Z score": 1.89}, {"compound": "O=c1n(Cc2ccon2)nc2ccccn12", "% Inhibition": -9, "Z score": 1.44}, {"compound": "O=C1c2cccnc2CN1[C@@H]1CCC[C@H]1OCc1ccccc1", "% Inhibition": -6, "Z score": 1.15}, {"compound": "CC(C)(C)CN(CCCO)C(=O)c1ccc(C#N)cn1", "% Inhibition": -6, "Z score": 0.88}, {"compound": "O=C1N(c2ccccc2)Cc2nn(Cc3ccc(Cl)cc3)c(=O)n21", "% Inhibition": -1, "Z score": 0.07}, {"compound": "C[C@H](NC(=O)NCC1(CS(C)(=O)=O)CC1)C(C)(C)C", "% Inhibition": -2, "Z score": 0.26}, {"compound": "Cc1cccc(C)c1OCc1cc(C(=O)N2CCN3CCC[C@H]3C2)no1", "% Inhibition": -14, "Z score": 1.25}, {"compound": "CN(C)c1cc2c(cc1NC(=O)NCC[C@H]1CCCOC1)n(C)c(=O)n2C", "% Inhibition": -4, "Z score": 0.59}, {"compound": "Nc1nc2c(c(NCCN3CCNC3=O)n1)CCCC2", "% Inhibition": 2, "Z score": -0.28}, {"compound": "Cc1csc(C(=O)NCC[C@H](O)c2cccn2C)c1", "% Inhibition": 22, "Z score": -2.78}, {"compound": "Cc1ccc(Cc2ccccc2C(=O)N2C[C@H]3CCN(C)[C@H]3C2)cc1F", "% Inhibition": -5, "Z score": 0.99}, {"compound": "CC1(C)C[C@@H]1C(=O)Nc1cc(C(F)(F)F)n[nH]1", "% Inhibition": -1, "Z score": 0.07}, {"compound": "Cc1cnc(NCc2cccs2)nc1NCc1cccs1", "% Inhibition": 10, "Z score": -1.24}, {"compound": "COc1ccc(CC(=O)N2CCc3nc(N4CCCCC4)nc(Oc4cccc(OC)c4)c3C2)cc1", "% Inhibition": -12, "Z score": 1.12}, {"compound": "COc1ccc(OC)c(-c2nn(-c3ccccc3)cc2CCC(=O)NCc2cccc(Cl)c2)c1", "% Inhibition": -5, "Z score": 0.6}, {"compound": "COCCn1nc(C)c(NC(=O)N2CC(C)CC(C)C2)c1C", "note": "(configuration not stated)", "% Inhibition": -8, "Z score": 0.99}, {"compound": "CC(C)c1ccc(C(=O)NC[C@H]2CCC3(CCOCC3)O2)c(O)c1", "% Inhibition": -2, "Z score": 0.44}, {"compound": "Cc1cc(C)cc(S(=O)(=O)Nc2cc(C(=O)O)ccc2N(C)Cc2ccccc2)c1", "% Inhibition": -12, "Z score": 1.2}, {"compound": "O=C(NCCc1ccc(Cl)cc1)c1nn[nH]c1Nc1ccccc1F", "% Inhibition": 3, "Z score": -0.37}, {"compound": "C[C@H](NC(c1ccccc1)c1ccccc1)c1nnc(-c2cccs2)o1", "% Inhibition": 33, "Z score": -4.41}, {"compound": "COCCN(Cc1cncs1)C(=O)c1cc2c(s1)CCNC2", "% Inhibition": 7, "Z score": -1.36}, {"compound": "C=C1C(C(=O)Nc2ccccc2F)[C@H]1C(=O)Nc1ccccc1F", "note": "(some centres not stated)", "% Inhibition": 0, "Z score": -0.04}, {"compound": "O=C(CCc1cn[nH]c1)N(Cc1cnn(-c2ccccc2)c1)C1CC1", "% Inhibition": -16, "Z score": 2.05}]}]}
